# Assay results as given in the supplement of paper PMC8728848.
# The list shows a part of the results.
# What was measured:
# Assay in all cases: glycan array binding signal (z-score within array); higher = stronger binding
# Details in all cases: glycan notation: IUPAC condensed, linker removed
# [1] = biological target: Fuc(a1-2)Gal6S(b1-3)GlcNAc6S
# Procedure, shortened: (§1)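 From the Consortium for Functional Glycomics database, 3228 arrays were curated, keeping only those whose protein sequence was available. Binding is given as a within-array Z-score averaged across arrays sharing a protein sequence and across linkers. Negative Z-scores can be read as non-binding.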
# Fuc(a1-2)Gal6S(b1-4)Glc = biological target: Fuc(a1-2)Gal6S(b1-4)Glc
# Procedure, shortened: as §1
# [2] = biological target: Fuc(a1-2)Gal6S(b1-4)Glc6S
# Procedure, shortened: as §1
# Fuc(a1-2)[Gal(a1-3)]Gal = biological target: Fuc(a1-2)[Gal(a1-3)]Gal
# Procedure, shortened: as §1
# [3] = biological target: Fuc(a1-2)[Gal(a1-3)]Gal(b1-3)GalNAc
# Procedure, shortened: as §1
# [4] = biological target: Fuc(a1-2)[Gal(a1-3)]Gal(b1-3)GalNAc(b1-3)Gal(a1-4)Gal(b1-4)Glc
# Procedure, shortened: as §1
# [5] = biological target: Fuc(a1-2)[Gal(a1-3)]Gal(b1-3)GlcNAc
# Procedure, shortened: as §1
# [6] = biological target: Fuc(a1-2)[Gal(a1-3)]Gal(b1-3)GlcNAc(b1-2)Man(a1-3)[Fuc(a1-2)[Gal(a1-3)]Gal(b1-3)GlcNAc(b1-2)Man(a1-6)]Man(b1-4)GlcNAc(b1-4)GlcNAc
# Procedure, shortened: as §1
# [7] = biological target: Fuc(a1-2)[Gal(a1-3)]Gal(b1-3)GlcNAc(b1-2)Man(a1-3)[Fuc(a1-2)[Gal(a1-3)]Gal(b1-3)GlcNAc(b1-2)Man(a1-6)]Man(b1-4)GlcNAc(b1-4)[Fuc(a1-6)]GlcNAc
# Procedure, shortened: as §1
# [8] = biological target: Fuc(a1-2)[Gal(a1-3)]Gal(b1-3)GlcNAc(b1-3)GalNAc
# Procedure, shortened: as §1
# [9] = biological target: Fuc(a1-2)[Gal(a1-3)]Gal(b1-3)GlcNAc(b1-6)GalNAc
# Procedure, shortened: as §1
# [10] = biological target: Fuc(a1-2)[Gal(a1-3)]Gal(b1-4)Glc
# Procedure, shortened: as §1
# [11] = biological target: Fuc(a1-2)[Gal(a1-3)]Gal(b1-4)GlcNAc
# Procedure, shortened: as §1
# [12] = biological target: Fuc(a1-2)[Gal(a1-3)]Gal(b1-4)GlcNAc(b1-2)Man
# Procedure, shortened: as §1
# [13] = biological target: Fuc(a1-2)[Gal(a1-3)]Gal(b1-4)GlcNAc(b1-2)Man(a1-3)[Fuc(a1-2)[Gal(a1-3)]Gal(b1-4)GlcNAc(b1-2)Man(a1-6)]Man(b1-4)GlcNAc(b1-4)GlcNAc
# Procedure, shortened: as §1
# [14] = biological target: Fuc(a1-2)[Gal(a1-3)]Gal(b1-4)GlcNAc(b1-2)Man(a1-3)[Fuc(a1-2)[Gal(a1-3)]Gal(b1-4)GlcNAc(b1-2)Man(a1-6)]Man(b1-4)GlcNAc(b1-4)[Fuc(a1-6)]GlcNAc
# Procedure, shortened: as §1
# [15] = biological target: Fuc(a1-2)[Gal(a1-3)]Gal(b1-4)GlcNAc(b1-3)GalNAc
# Procedure, shortened: as §1
# [16] = biological target: Fuc(a1-2)[Gal(a1-3)]Gal(b1-4)GlcNAc(b1-3)[Fuc(a1-2)[Gal(a1-3)]Gal(b1-4)GlcNAc(b1-6)]GalNAc
# Procedure, shortened: as §1
# [17] = biological target: Fuc(a1-2)[Gal(a1-3)]Gal(b1-4)GlcNAc(b1-6)GalNAc
# Procedure, shortened: as §1
# [18] = biological target: Fuc(a1-2)[Gal(a1-3)]Gal(b1-4)[Fuc(a1-3)]Glc
# Procedure, shortened: as §1
# [19] = biological target: Fuc(a1-2)[Gal(a1-3)]Gal(b1-4)[Fuc(a1-3)]GlcNAc
# Procedure, shortened: as §1
# [20] = biological target: Fuc(a1-2)[Gal(a1-3)]Gal(b1-4)[Fuc(a1-3)]GlcNAc(b1-3)GalNAc
# Procedure, shortened: as §1
# [21] = biological target: Fuc(a1-2)[Gal(a1-4)]Gal(b1-4)GlcNAc
# Procedure, shortened: as §1
# [22] = biological target: Fuc(a1-2)[GalNAc(a1-3)]Gal
# Procedure, shortened: as §1
# [23] = biological target: Fuc(a1-2)[GalNAc(a1-3)]Gal(b1-3)GalNAc(a1-3)[Fuc(a1-2)]Gal(b1-4)GlcNAc
# Procedure, shortened: as §1
# [24] = biological target: Fuc(a1-2)[GalNAc(a1-3)]Gal(b1-3)GalNAc(b1-3)Gal(a1-4)Gal(b1-4)Glc
# Procedure, shortened: as §1
# [25] = biological target: Fuc(a1-2)[GalNAc(a1-3)]Gal(b1-3)GlcNAc
# Procedure, shortened: as §1
# [26] = biological target: Fuc(a1-2)[GalNAc(a1-3)]Gal(b1-3)GlcNAc(b1-2)Man(a1-3)[Fuc(a1-2)[GalNAc(a1-3)]Gal(b1-3)GlcNAc(b1-2)Man(a1-6)]Man(b1-4)GlcNAc(b1-4)GlcNAc
# Procedure, shortened: as §1
# [27] = biological target: Fuc(a1-2)[GalNAc(a1-3)]Gal(b1-3)GlcNAc(b1-2)Man(a1-3)[Fuc(a1-2)[GalNAc(a1-3)]Gal(b1-3)GlcNAc(b1-2)Man(a1-6)]Man(b1-4)GlcNAc(b1-4)[Fuc(a1-6)]GlcNAc
# Procedure, shortened: as §1
# [28] = biological target: Fuc(a1-2)[GalNAc(a1-3)]Gal(b1-3)GlcNAc(b1-3)GalNAc
# Procedure, shortened: as §1
# [29] = biological target: Fuc(a1-2)[GalNAc(a1-3)]Gal(b1-3)GlcNAc(b1-6)GalNAc
# Procedure, shortened: as §1
# [30] = biological target: Fuc(a1-2)[GalNAc(a1-3)]Gal(b1-4)Glc
# Procedure, shortened: as §1
# [31] = biological target: Fuc(a1-2)[GalNAc(a1-3)]Gal(b1-4)GlcNAc
# Procedure, shortened: as §1
# [32] = biological target: Fuc(a1-2)[GalNAc(a1-3)]Gal(b1-4)GlcNAc(b1-2)Man
# Procedure, shortened: as §1
# [33] = biological target: Fuc(a1-2)[GalNAc(a1-3)]Gal(b1-4)GlcNAc(b1-2)Man(a1-3)[Fuc(a1-2)[GalNAc(a1-3)]Gal(b1-4)GlcNAc(b1-2)Man(a1-6)]Man(b1-4)GlcNAc(b1-4)GlcNAc
# Procedure, shortened: as §1
# [34] = biological target: Fuc(a1-2)[GalNAc(a1-3)]Gal(b1-4)GlcNAc(b1-2)Man(a1-3)[Fuc(a1-2)[GalNAc(a1-3)]Gal(b1-4)GlcNAc(b1-2)Man(a1-6)]Man(b1-4)GlcNAc(b1-4)[Fuc(a1-6)]GlcNAc
# Procedure, shortened: as §1
# [35] = biological target: Fuc(a1-2)[GalNAc(a1-3)]Gal(b1-4)GlcNAc(b1-3)Gal(b1-4)GlcNAc
# Procedure, shortened: as §1
# [36] = biological target: Fuc(a1-2)[GalNAc(a1-3)]Gal(b1-4)GlcNAc(b1-3)Gal(b1-4)GlcNAc(b1-3)Gal(b1-4)GlcNAc
# Procedure, shortened: as §1
# [37] = biological target: Fuc(a1-2)[GalNAc(a1-3)]Gal(b1-4)GlcNAc(b1-3)GalNAc
# Procedure, shortened: as §1
# [38] = biological target: Fuc(a1-2)[GalNAc(a1-3)]Gal(b1-4)GlcNAc(b1-3)[Fuc(a1-2)[GalNAc(a1-3)]Gal(b1-4)GlcNAc(b1-6)]GalNAc
# Procedure, shortened: as §1
# [39] = biological target: Fuc(a1-2)[GalNAc(a1-3)]Gal(b1-4)GlcNAc(b1-6)GalNAc
# Procedure, shortened: as §1
# [40] = biological target: Fuc(a1-2)[GalNAc(a1-3)]Gal(b1-4)[Fuc(a1-3)]GlcNAc
# Procedure, shortened: as §1
# [41] = biological target: Fuc(a1-2)[GalNAc(a1-3)]Gal(b1-4)[Fuc(a1-3)]GlcNAc(b1-3)GalNAc
# Procedure, shortened: as §1
# [42] = biological target: Fuc(a1-2)[GalNAc(a1-4)]Gal(b1-4)GlcNAc
# Procedure, shortened: as §1
# [43] = biological target: Fuc(a1-2)[GalNAc(b1-3)]Gal
# Procedure, shortened: as §1
binder,measurement,setting,value
SP15308A-bot-339-19-339 (Bacteroides ovatus) (protein) ACNNEWEDEQYEQYISFKSPIPAGGEGVTDIYVRYKEDGKVTYRLPIVVSGSTTNTLDREVHIAVDKDTLETLNIERFSIHRPGLWYTALEEDKYDFPKTVHISAGSSVEQLNIDFNLQGIDMLEKWVLPLTIVDDPSYNYKSHPRKNYAKALLRVIPFNNYSGSYTSSAMKVYTYINGKPDTNARTANKRTGYVINDNTVFFYAGLISEDLDKEVREKYKINVHFNEDGTLHMEQGDPTNKMKFELIGTPTYSKTSVMDATRPYLERRYVQIMFEYDFEDFSYGGNGVDVIPIKYKVEGSMTLQRNINTQIPDEDQQIEW,glycan array binding signal (z-score),[1],0.553
same,glycan array binding signal (z-score),Fuc(a1-2)Gal6S(b1-4)Glc,0.254
same,glycan array binding signal (z-score),[2],0.025
same,glycan array binding signal (z-score),Fuc(a1-2)[Gal(a1-3)]Gal,-0.093
same,glycan array binding signal (z-score),[3],-0.051
same,glycan array binding signal (z-score),[4],-0.254
same,glycan array binding signal (z-score),[5],-0.034
same,glycan array binding signal (z-score),[6],-0.641
same,glycan array binding signal (z-score),[7],-0.333
same,glycan array binding signal (z-score),[8],-0.457
same,glycan array binding signal (z-score),[9],0.014
same,glycan array binding signal (z-score),[10],-0.257
same,glycan array binding signal (z-score),[11],-0.423
same,glycan array binding signal (z-score),[12],0.239
same,glycan array binding signal (z-score),[13],1.04
same,glycan array binding signal (z-score),[14],-0.253
same,glycan array binding signal (z-score),[15],-0.46
same,glycan array binding signal (z-score),[16],8.34
same,glycan array binding signal (z-score),[17],-0.001
same,glycan array binding signal (z-score),[18],0.304
same,glycan array binding signal (z-score),[19],-0.083
same,glycan array binding signal (z-score),[20],-0.571
same,glycan array binding signal (z-score),[21],0.359
same,glycan array binding signal (z-score),[22],-0.372
same,glycan array binding signal (z-score),[23],-0.115
same,glycan array binding signal (z-score),[24],-0.468
same,glycan array binding signal (z-score),[25],-0.496
same,glycan array binding signal (z-score),[26],-0.285
same,glycan array binding signal (z-score),[27],-0.136
same,glycan array binding signal (z-score),[28],0.521
same,glycan array binding signal (z-score),[29],-0.18
same,glycan array binding signal (z-score),[30],-0.312
same,glycan array binding signal (z-score),[31],-0.438
same,glycan array binding signal (z-score),[32],-0.499
same,glycan array binding signal (z-score),[33],-0.581
same,glycan array binding signal (z-score),[34],-0.434
same,glycan array binding signal (z-score),[35],-0.622
same,glycan array binding signal (z-score),[36],0.178
same,glycan array binding signal (z-score),[37],-0.594
same,glycan array binding signal (z-score),[38],-0.48
same,glycan array binding signal (z-score),[39],-0.404
same,glycan array binding signal (z-score),[40],0.426
same,glycan array binding signal (z-score),[41],0.187
same,glycan array binding signal (z-score),[42],-0.17
same,glycan array binding signal (z-score),[43],-0.266
